Source: PMC4336329 (PLoS ONE, 2015)
Hit rate of the full screen: of about 310,000 compounds, about 14,000 (4.5%) showed an effect of 50% or more. Effects have a minus sign here. This is one part of the list.

What follows are molecules tested against human ether-à-go-go-related gene (hERG) potassium channel (human, UniProt Q12809) (assay: primary screen, population patch clamp on CHO cells stably expressing hERG).
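Further: peak tail current of the secondary pulse compared with the same well before compound.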

Sequence of human ether-à-go-go-related gene (hERG) potassium channel (Q12809 whole entry, looked up): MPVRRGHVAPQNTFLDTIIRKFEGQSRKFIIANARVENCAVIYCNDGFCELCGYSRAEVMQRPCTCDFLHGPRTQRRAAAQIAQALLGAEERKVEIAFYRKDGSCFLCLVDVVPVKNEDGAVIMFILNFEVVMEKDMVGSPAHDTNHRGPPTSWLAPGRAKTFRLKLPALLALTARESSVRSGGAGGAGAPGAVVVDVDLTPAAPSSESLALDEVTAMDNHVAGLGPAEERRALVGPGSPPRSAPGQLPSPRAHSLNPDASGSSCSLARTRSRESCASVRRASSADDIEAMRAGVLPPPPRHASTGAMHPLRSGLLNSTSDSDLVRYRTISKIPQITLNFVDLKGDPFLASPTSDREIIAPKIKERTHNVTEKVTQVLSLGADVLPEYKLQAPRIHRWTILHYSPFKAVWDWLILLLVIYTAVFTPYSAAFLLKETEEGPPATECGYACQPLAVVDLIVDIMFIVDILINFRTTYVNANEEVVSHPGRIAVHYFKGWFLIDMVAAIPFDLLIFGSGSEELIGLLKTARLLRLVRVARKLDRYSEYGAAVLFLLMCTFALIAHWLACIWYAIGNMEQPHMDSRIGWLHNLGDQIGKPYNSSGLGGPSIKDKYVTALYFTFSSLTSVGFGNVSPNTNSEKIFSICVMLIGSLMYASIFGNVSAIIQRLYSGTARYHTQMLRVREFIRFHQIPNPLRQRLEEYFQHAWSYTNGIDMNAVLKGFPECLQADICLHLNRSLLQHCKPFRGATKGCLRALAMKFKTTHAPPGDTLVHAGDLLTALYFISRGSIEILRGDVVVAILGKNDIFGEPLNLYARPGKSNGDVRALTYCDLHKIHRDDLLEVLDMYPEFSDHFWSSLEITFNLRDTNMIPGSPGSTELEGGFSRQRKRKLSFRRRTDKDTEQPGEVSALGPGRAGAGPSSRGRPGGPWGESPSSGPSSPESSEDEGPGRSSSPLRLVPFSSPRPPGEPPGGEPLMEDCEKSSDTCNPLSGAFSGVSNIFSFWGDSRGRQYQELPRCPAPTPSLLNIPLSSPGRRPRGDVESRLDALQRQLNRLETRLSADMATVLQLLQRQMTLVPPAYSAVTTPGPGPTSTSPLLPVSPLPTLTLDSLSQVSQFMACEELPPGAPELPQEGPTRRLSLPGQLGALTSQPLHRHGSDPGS

Row | Compound | hERG current change (%, negative = inhibition) at 10uM
1 | CN(C)C=NC(=O)c1cc(C(=O)c2ccccc2Cl)c[nH]1 | 16.8%
2 | CC1CCN(C(=O)Cc2nn(C)c(=O)c3ccccc23)CC1 | 2.18%
3 | c1cnn(-c2cncc(-n3cccn3)n2)c1 | 19.1%
4 | CCOC(=O)c1c(CN(C)C)oc2cc(CN(C)C)c(O)c(CSc3ccccc3)c12.Cl | -19.3%
5 | O=C(N/N=C/C=N/NC(=O)c1ccco1)c1ccco1 | 13.4%
6 | CC1(C)OC(=O)CC1C(=O)NCc1ccccc1 (centres unmarked) | 9.98%
7 | COc1cc(C(=O)N(CCCO)Cc2cc3ccc(C)c(C)c3[nH]c2=O)cc(OC)c1OC | -11.9%
8 | COc1ccc(C2/C=C\CN(CC(C)C)CC(=O)N2Cc2ccc(F)cc2)cc1 (centres unmarked) | -6.03%
9 | C[C@@H]1CC=C[C@H]2[C@H]1C(=O)N(Cc1ccccc1)[C@H]2c1ccc(-c2ccoc2)cc1F | 18.9%
10 | Cc1ccc(N2C(=O)/C(=C\c3ccco3)SC2=S)cc1 | 24.5%
11 | CCCOc1ccc(C(=O)N2CCCC2C(=O)O)cc1 (centres unmarked) | 8.5%
12 | O=[N+]([O-])CCO | 16.3%
13 | CC1CN=C(NCc2ccc(F)cc2)S1 (centres unmarked) | -8.5%
14 | CC1(C)Cc2nc3oc4c(SCC(N)=O)ncnc4c3cc2CO1 | 4.95%
15 | CC(C)(C)C(=O)NC1CC2CCCC(C1)N2C(=O)Nc1ccccc1 (centres unmarked) | 14.9%
16 | O=[N+]([O-])CC(c1ccc(F)cc1)c1c[nH]c2ccccc12 (centres unmarked) | -13.1%
17 | COc1ccc(CNC(=S)NC(C)CCc2ccccc2)cc1 (centres unmarked) | -40%
18 | N#C/C(=C/c1ccccc1[N+](=O)[O-])c1nc(C2CC2)cs1 | -12.3%
19 | COc1ccc(OC)c(NC(=O)Cc2csc(NC(=O)Nc3ccccc3OC)n2)c1 | -5.66%
20 | S=C(NCCc1ccccc1)N/N=C/c1ccccc1Cl | 26.8%
21 | Cc1cc(C)cc(-n2c3nc4ccccc4nc3c3c(=O)n(Cc4ccco4)cnc32)c1 | 6.26%
22 | O=S(=O)(c1cccc(NC(=S)N2CCN(c3ccccc3F)CC2)c1)C(F)F | 16.4%
23 | CC1(C)SC(=S)N(c2ccccc2)C1/[N+]([O-])=C/c1cccc([N+](=O)[O-])c1 (centres unmarked) | 16.4%

Row | Compound | hERG current change (%, negative = inhibition) at 10uM
24 | Cc1ccccc1Cn1nc(C)c(NC(=O)c2cc(CC(C)C)on2)c1C | -0.721%
25 | Cc1nc2c([nH]1)C1(CCN(Cc3ccccc3)CC1)C(C#N)=C(N)O2.Cl | -52.5%
26 | Cc1ccc(NCN2C(=O)C3CC=C(Cl)CC3C2=O)cc1 (centres unmarked) | 6.98%
27 | Cc1cccc(CCN2C(N(C)C)=NC[C@@H]2CC(C)C)c1 | -18.1%
28 | CCCCCCn1c(=O)c(C(=O)N/N=C/c2cccc(F)c2)c(O)c2ccccc21 | 14.8%
29 | CCc1ccc(NC(=O)Nc2ccc3c(c2)CCC3)cc1 | 2.21%
30 | CCCCCCOc1ccc(CN2CCN(CCO)CC2)cc1 | -42%
31 | CCOC(=O)C1(CCCc2ccccc2)CCN(C(=O)CCn2cncn2)CC1 | -56.4%
32 | O=C(OCC1OC(n2ccc(=O)[nH]c2=O)C(Cl)C1O)c1ccccc1 (centres unmarked) | -9.37%
33 | O=C(Nc1ccccc1F)C1CC1c1ccccc1 (centres unmarked) | 3.92%
34 | O=C(NC(=S)Nc1cc(S(=O)(=O)N2CCOCC2)ccc1O)c1ccco1 | 16.5%
35 | O=C(CCNS(=O)(=O)c1cccc2nonc12)N1CCN(c2cccc(Cl)c2)CC1 | -50.6%
36 | CCCCc1cn([C@@H](CCCCNC(=O)OC(C)(C)C)C(=O)N2CCN(C(=O)OC(C)(C)C)CC2)nn1 | -2.98%
37 | O=C1/C(=C\c2ccccc2)SC(=S)N1CCC(=O)N1CCCCC1CCO (centres unmarked) | 0.682%
38 | COc1ccc(-c2csc(NC(=O)CC(NC(C)=O)c3ccccc3)n2)cc1OC (centres unmarked) | -4.59%
39 | CCc1ccc(/C=C2\SC(=S)N(CCCC(=O)Nc3ccccc3C(=O)O)C2=O)cc1 | 16.8%
40 | COc1ccc(/C=C/c2nnc(NC(=O)COc3cccc(C)c3)s2)cc1 | 9.43%
41 | CCOc1cc(C2C3=C(CC(C)(C)CC3=O)N(CCCOC)C3=C2C(=O)CC(C)(C)C3)ccc1O | 2.29%
42 | CCCCNC(=O)Cn1c(=O)oc2cc(S(=O)(=O)N3CC(C)CC(C)C3)ccc21 (centres unmarked) | 9.3%
43 | Cc1ccc(/C=N/NC(=O)c2cccnc2)s1 | 10.2%
44 | O=C(NCc1ccccc1)C12CC3CC(CC(C3)C1)C2 | 4.58%
45 | COc1cc(NC(=O)c2cc(-c3ccco3)on2)c(OC)cc1Cl | -22%
46 | Cc1cc(N)c(C)c([N+](=O)[O-])c1C | 1.69%

Row | Compound | hERG current change (%, negative = inhibition) at 10uM
47 | CCOC(=O)c1oc2ccccc2c1CN1CC(C)OC(C)C1 (centres unmarked) | -0.576%
48 | O=C(C1CCCC1)N1CCC(CC2CC(c3ccc(Cl)cc3)=NO2)(C(=O)NCC2CCCCC2)CC1 (centres unmarked) | -24.1%
49 | CCN(CC)c1nc(Nc2ccc(Cl)cc2)nc(OCC#N)n1 | 12.8%
50 | COc1ccccc1CN1CC(C(=O)NCc2cccnc2)CC1=O (centres unmarked) | -1.45%
51 | Cc1cc(=O)oc2c(C)c(OCC(=O)N3CCN(c4ccccc4)CC3)ccc12 | -24.8%
52 | Cc1ccccc1OCC(=O)N/N=C/c1ccncc1 | -7.48%
53 | O=C(OCC(=O)N1CCCC1)c1ccccc1O | 24.2%
54 | CC(C)(CO)NCc1cccs1.Cl | 11.3%
55 | Cc1onc(-c2ccccc2Cl)c1C(=O)OCN1C(=O)c2ccccc2C1=O | -7.31%
56 | COc1ccc(N2CCN(c3cc(C)c4ccccc4n3)CC2)cc1 | 3.95%
57 | CC(=O)Nc1ccc(-n2c(C)ccc2C)cc1 | 16.3%
58 | CCOC(=O)C(CC)n1nc(C)n2c(cc3occc32)c1=O (centres unmarked) | 13.9%
59 | CCC1CCCCN1c1nc(-c2ccncc2)nc2ccccc12 (centres unmarked) | -42.5%
60 | CC1(C)Cc2c(sc3c2c(=N)n(Cc2ccco2)c(=O)n3Cc2ccc(F)cc2)CO1 | -19.3%
61 | CC1(C)Cc2c(sc3c2c(=N)n(Cc2ccco2)c(=O)n3CC(=O)Nc2ccc(Cl)cc2)CO1 | -6.02%
62 | Clc1ccc(COn2nnc3ccccc32)c(Cl)c1 | 2.93%
63 | CCN(CC)CC.CCN1C(=O)/C(=C2/Sc3ccccc3N2CCCS(=O)(=O)O)SC1=S | 4.01%
64 | FC(F)Sc1ccc(NC(=S)NC2CCCC2)cc1 | 0.442%
65 | CCOc1ccc(OCc2ccc(C(=O)NCc3cccnc3)o2)cc1 | -4.89%
66 | CCOC(=O)CC1COCCN1C(=O)CCc1nnc(-c2ccsc2)o1 (centres unmarked) | 3.96%
67 | Cc1ccc(Nc2cc(C)nc3c(C)cccc23)cc1 | -53.3%
68 | C=CCn1c(SCC(N)=O)nc2sc3c(c2c1=O)CCC3 | -2.38%
69 | CC1Sc2ccc(S(=O)(=O)CCC(=O)NC3CCCCC3C)cc2NC1=O (centres unmarked) | -6.87%

Row | Compound | hERG current change (%, negative = inhibition) at 10uM
70 | O=C(CS(=O)(=O)c1cn(Cc2ccc(Cl)cc2)c2ccccc12)N1CCOCC1 | -28%
71 | CCCN(CC(=O)Nc1ccccc1C)C(=O)c1cc(C)oc1C | 3%
72 | Cc1cc(NC(=O)Cn2cnc3c(nnn3-c3ccc(C)c(Cl)c3)c2=O)no1 | 2.29%
73 | CCc1ccc2[nH]c(C(=O)Nc3ccc(C)c(F)c3)cc2c1 | 23.2%
74 | Cc1cccc2c(N=Nc3ccc(S(=O)(=O)Nc4ccc(Cl)cc4)cc3[N+](=O)[O-])c(O)[nH]c12 | 31.8%
75 | NC(=O)CS(=O)(=O)c1nc2ccccc2n1CC(=O)N1CCCCC1 | 4.29%
76 | Cc1ccc(Nc2nc(N)nc(CN3CCN(c4ccccc4)CC3)n2)cc1Cl | -66.4%
77 | S=C(Nc1cccc(Cl)c1)N1CCOCC1 | -12.2%
78 | N#Cc1c(-c2ccccc2)nc(SCC(=O)N2c3ccccc3Sc3ccccc32)[nH]c1=O | 15.7%
79 | Nn1c(SCC(=O)Nc2cccc(S(N)(=O)=O)c2)nnc1C1CC1 | 9.28%
80 | CC1CCN(S(=O)(=O)c2ccc3c(c2)N(CC(=O)NCCN2C(C)CCCC2C)C(=O)CS3)CC1 (centres unmarked) | -52.7%
81 | CCc1ccc(-n2c(SCc3cc(=O)n4cc(Br)ccc4n3)nc3[nH]ncc3c2=O)cc1 | -51%
82 | CC(C)(C)C(=O)NC(=S)N1CCOCC1 | 7.45%
83 | O=C(O)CCC(=O)Nc1sc2c(c1C(=O)NC1CCCC1)CCCC2 | 5.76%
84 | Cc1cccc(-c2noc(CCCOc3ccc(Cl)cc3Cl)n2)c1 | 3.05%
85 | O=C(N/N=C/c1cccc([N+](=O)[O-])c1)c1nc2ccccc2c(=O)[nH]1 | 0.968%
86 | COc1cccc(CC(=O)OCC(=O)N(C)CC(=O)Nc2ccc(Cl)c(C(F)(F)F)c2)c1 | 0.214%
87 | CCOc1ccc(NC(=O)CSc2nnc(C(C)C)n2CC)cc1 | 9.17%
88 | COc1ccc(/C=N/N=C2/NC(=O)C(CC(=O)O)S2)cc1OCc1ccc(Cl)cc1 (centres unmarked) | -1.97%
89 | CS(=O)(=O)N(CC(=O)N1CCN(Cc2ccccc2)CC1)c1cccc(F)c1 | -36.3%
